Source: publication PMC7933334, “The methyltransferase SETD2 couples transcription and splicing by engaging mRNA processing factors through its SHI domain” (Nature Communications, 2021)
No constants are given. Whether binding was seen depends on the method and setting. Binding seen in cells or lysates may run through a third protein. Some entries that bind do so weakly or less than the wild type.

How the values were obtained:
Assay in all cases: co-IP; Halo affinity purification of a Halo-tagged bait expressed in 293T (Magne HaloTag beads, AcTEV elution); endogenous partner detected by western blot; lysate with or without RNase where stated
[1] = molecular target: T1, Halo-SETD2 2114–2263 (human) (UniProt Q9BYW2)
T1 sequence: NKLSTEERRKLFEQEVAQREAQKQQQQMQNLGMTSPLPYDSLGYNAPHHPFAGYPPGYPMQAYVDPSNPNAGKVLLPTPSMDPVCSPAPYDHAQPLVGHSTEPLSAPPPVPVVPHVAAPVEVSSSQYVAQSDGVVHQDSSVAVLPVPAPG

[2] = molecular target: T2, Halo-SETD2 2264–2564 (human) (UniProt Q9BYW2)
T2 sequence: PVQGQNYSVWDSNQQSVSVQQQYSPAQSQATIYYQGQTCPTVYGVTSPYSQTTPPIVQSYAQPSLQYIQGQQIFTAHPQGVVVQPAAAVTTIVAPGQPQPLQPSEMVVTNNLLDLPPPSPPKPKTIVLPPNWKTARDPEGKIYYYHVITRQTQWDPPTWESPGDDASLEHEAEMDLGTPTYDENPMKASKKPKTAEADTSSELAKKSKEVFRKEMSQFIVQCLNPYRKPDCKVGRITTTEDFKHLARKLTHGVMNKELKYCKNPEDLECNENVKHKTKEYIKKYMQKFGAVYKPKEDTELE

[3] = molecular target: T3, Halo-SETD2CΔ2164–2213 (human) (UniProt Q9BYW2)
T3 sequence: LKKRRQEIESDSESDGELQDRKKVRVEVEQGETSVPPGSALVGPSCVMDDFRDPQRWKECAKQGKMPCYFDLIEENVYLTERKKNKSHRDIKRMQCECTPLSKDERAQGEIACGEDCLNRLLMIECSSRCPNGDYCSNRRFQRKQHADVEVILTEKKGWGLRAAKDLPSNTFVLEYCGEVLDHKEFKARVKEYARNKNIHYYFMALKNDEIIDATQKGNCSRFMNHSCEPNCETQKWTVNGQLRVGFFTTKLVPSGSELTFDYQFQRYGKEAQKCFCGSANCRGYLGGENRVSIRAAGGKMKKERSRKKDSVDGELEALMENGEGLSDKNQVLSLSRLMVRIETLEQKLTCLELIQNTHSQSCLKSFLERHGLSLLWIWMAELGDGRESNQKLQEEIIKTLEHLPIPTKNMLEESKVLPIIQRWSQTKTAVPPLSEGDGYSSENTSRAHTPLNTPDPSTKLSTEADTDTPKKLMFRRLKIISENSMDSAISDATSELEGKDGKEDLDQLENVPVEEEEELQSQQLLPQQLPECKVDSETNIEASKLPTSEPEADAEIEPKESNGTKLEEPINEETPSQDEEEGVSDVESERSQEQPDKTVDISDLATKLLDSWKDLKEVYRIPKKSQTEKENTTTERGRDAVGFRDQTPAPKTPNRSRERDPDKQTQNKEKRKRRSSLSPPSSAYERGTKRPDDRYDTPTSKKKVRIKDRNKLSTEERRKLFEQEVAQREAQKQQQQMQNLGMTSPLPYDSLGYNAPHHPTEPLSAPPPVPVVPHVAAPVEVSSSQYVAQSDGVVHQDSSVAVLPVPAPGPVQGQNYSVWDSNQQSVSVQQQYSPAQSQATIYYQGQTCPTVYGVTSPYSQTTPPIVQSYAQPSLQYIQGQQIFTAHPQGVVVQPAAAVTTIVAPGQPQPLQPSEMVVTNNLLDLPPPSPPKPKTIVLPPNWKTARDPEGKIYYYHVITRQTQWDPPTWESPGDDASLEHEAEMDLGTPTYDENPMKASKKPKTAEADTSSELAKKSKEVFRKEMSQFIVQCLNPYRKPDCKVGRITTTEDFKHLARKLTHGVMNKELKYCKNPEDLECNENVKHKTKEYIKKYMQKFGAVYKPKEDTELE

Halo-ySet2 (yeast) = molecular target: T4, Halo-ySet2 (yeast) (UniProt P46995)
T4 sequence: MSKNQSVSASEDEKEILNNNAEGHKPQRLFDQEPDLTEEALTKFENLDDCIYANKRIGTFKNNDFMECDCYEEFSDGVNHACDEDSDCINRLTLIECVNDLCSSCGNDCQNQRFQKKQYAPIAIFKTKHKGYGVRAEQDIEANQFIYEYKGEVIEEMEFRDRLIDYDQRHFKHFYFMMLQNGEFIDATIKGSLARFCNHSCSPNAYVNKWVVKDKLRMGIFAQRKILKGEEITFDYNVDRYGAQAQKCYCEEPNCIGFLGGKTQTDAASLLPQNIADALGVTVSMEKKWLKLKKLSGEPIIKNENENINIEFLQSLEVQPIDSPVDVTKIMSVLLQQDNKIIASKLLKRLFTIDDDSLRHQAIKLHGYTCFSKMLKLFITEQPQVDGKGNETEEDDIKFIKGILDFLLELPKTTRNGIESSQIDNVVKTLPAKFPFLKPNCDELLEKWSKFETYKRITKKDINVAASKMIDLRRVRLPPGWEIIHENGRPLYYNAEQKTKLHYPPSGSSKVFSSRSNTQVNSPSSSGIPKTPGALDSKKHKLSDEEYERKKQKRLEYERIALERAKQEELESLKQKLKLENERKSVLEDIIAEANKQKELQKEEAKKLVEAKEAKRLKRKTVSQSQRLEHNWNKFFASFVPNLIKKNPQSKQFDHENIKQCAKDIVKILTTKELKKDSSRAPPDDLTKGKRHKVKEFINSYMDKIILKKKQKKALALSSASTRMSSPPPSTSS

binding [1]: binds | binding [2]: no binding | binding [3]: no binding | binding (Halo-ySet2 (yeast)): no binding
B1: hnRNP L (endogenous) (protein, UniProt P14866 1-589)
chain: MSRRLLPRAEKRRRRLEQRQQPDEQRRRSGAMVKMAAAGGGGGGGRYYGGGSEGGRAPKRLKTDNAGDQHGGGGGGGGGAGAAGGGGGGENYDDPHKTPASPVVHIRGLIDGVVEADLVEALQEFGPISYVVVMPKKRQALVEFEDVLGACNAVNYAADNQIYIAGHPAFVNYSTSQKISRPGDSDDSRSVNSVLLFTILNPIYSITTDVLYTICNPCGPVQRIVIFRKNGVQAMVEFDSVQSAQRAKASLNGADIYSGCCTLKIEYAKPTRLNVFKNDQDTWDYTNPNLSGQGDPGSNPNKRQRQPPLLGDHPAEYGGPHGGYHSHYHDEGYGPPPPHYEGRRMGPPVGGHRRGPSRYGPQYGHPPPPPPPPEYGPHADSPVLMVYGLDQSKMNCDRVFNVFCLYGNVEKVKFMKSKPGAAMVEMADGYAVDRAITHLNNNFMFGQKLNVCVSKQPAIMPGQSYGLEDGSCSYKDFSESRNNRFSTPEQAAKNRIQHPSNVLHFFNAPLEVTEENFFEICDELGVKRPSSVKVFSGKSERSSSGLLEWESKSDALETLGFLNHYQMKNPNGPYPYTLKLCFSTAQHAS
